Reference: publication PMC12136788
The other results are listed elsewhere or left out.

B1: 43513620_43515349_3275_CDS_ENSG00000052841_ENST00000039989|human|control|control (ssRNA)
RNA: GGGAGUUCUACAGUCCGACGAUCCCACACCAGUGCUUUUUCAAAUUCUUCCAUUGCCACGUAGACAUUGCCCAGAGUGAAGUGGUUCACAGCAAAGUGUGGUGCGAUCUCUACUGCCAUGGUGGCUACUAUGACGGCGUCAUUCAACAGAGGAUUGAGCAUCA
B2: chr4:109959894:109959895:-_ENSMUSG00000028546_ENSMUST00000106598|mus_hu|motif|central (ssRNA)
RNA: GGGAGUUCUACAGUCCGACGAUCCUUCGACUCUUCUGUUAAAAUUUGCAAAGAUUUCAGAAUAUAUAUUUAAAAUGACGGCGGUUGUUAUAUAUAAUUAAAGAUCCACAAAACACAGUGUGGAUGAUUGUAAAGCAAAUCAAUCAACAGAGGAUUGAGCAUCA
B3: chr7:35913284:35913285:+_ENSG00000122545_ENST00000399035|perfect_dup|FALSE|FALSE (ssRNA)
RNA: GGGAGUUCUACAGUCCGACGAUCAUCAGGCAUCUGACGUCUGUUCACUCGUGAUUCUGCAUUUAGGUAGUCCUCAAAUUUACUAUCAAUGUAGUCGAUAACAGGCUGCCAGCAAUUACUAUUAUCCACUGCAUCUCCAAAUCCCAACAGAGGAUUGAGCAUCA
B4: chr1:6324473:6324474:-_ENSG00000097021_ENST00000608083|hu_mus|FALSE|FALSE (ssRNA)
RNA: GGGAGUUCUACAGUCCGACGAUCGCCAGUCGGUGUGCUCUGGUGUCCAUGGUGGCCUUUGGGACAACACUGGGGACAUAAAUAAAGCUUUGGUGCACAGGUUUUGGGGAUGGGCCAUAGGGAACACUGCCACUCAACACUUCACAACAGAGGAUUGAGCAUCA
B5: chr4:76721835:76721836:+_ENSG00000138768_ENST00000264904|hu_mus|hu_hu_hu_mus_True|1_58 (ssRNA)
RNA: GGGAGUUCUACAGUCCGACGAUCGUUUGGCUGGGGUUUCUGAGACGCUCUGGAAUAUAACUCAUGUUUGCUAAUAAUCCUAGUUUCCUCUAUGAAAUUCUCUUUGCCAAUCCUCUUCUCUAUUAGUUGCUUUAGUUCUCUUUCCAACAGAGGAUUGAGCAUCA
B6: 45837776_45839329_1056_CDS_ENSMUSG00000036932_ENSMUST00000037349|mouse|control|control (ssRNA)
RNA: GGGAGUUCUACAGUCCGACGAUCCCGAGAGAUCUUCUCCAAGGCUCUAAAAUCUCCAAUCUUCCUGAAAAGUGUUGUUCUACUCUUCACCUCUGCUCCAGCCCUAUCGAUGGCAGACAGACUUCUUGGAGUGCCUCCCGUUGCCAACAGAGGAUUGAGCAUCA
B7: chr2:237995794:237995795:+_ENSG00000198612_ENST00000392008|hu_mus|FALSE|FALSE (ssRNA)
RNA: GGGAGUUCUACAGUCCGACGAUCUAUCCUCUUCCACAGAUAUCUUGCAUUAUUCAUGUCGUUCUGGAGCAAGUACAAAGCUAGAAGCUGACCGUACACUGGCGGUGUGGCAAUUCCUCCAGGAGCCUCGAGUUCCUGGUUCUCCAACAGAGGAUUGAGCAUCA
B8: chr6:51417264:51417265:-_ENSMUSG00000004980_ENSMUST00000090002|mus_hu|motif|central (ssRNA)
RNA: GGGAGUUCUACAGUCCGACGAUCAAGAGCUUACGGAACUGUUCCUUUUCUCUCUUUUUCCUCUCCAAAGGAACAGUUUCGGAAGUUUUCUCCAUCGCGGACUCAGUCGCUUCAGCCCGAUUUCCCGCAGCCGAGCGAGAUGAGCAACAGAGGAUUGAGCAUCA
B9: chr2:179515052:179515053:+_ENSMUSG00000000305_ENSMUST00000000314|mus_hu|mus_mus_mus_hu_False|28_58 (ssRNA)
RNA: GGGAGUUCUACAGUCCGACGAUCGCUGUCCCAUGCAGUCACCGUGAACGCCACCUGCUCGGAGGGGACCUGCAGCUCCCUAGUGGCGAAGACUGUCCCAUCUGCCCCGACUUUGAAGUCCAUGCUGUUGGUCUCAUAUUGUGUCAACAGAGGAUUGAGCAUCA
B10: chr7:148072430:148072431:+_ENSMUSG00000025487_ENSMUST00000026560|mus_mus|motif|central (ssRNA)
RNA: GGGAGUUCUACAGUCCGACGAUCAAAAGUAAGAGCCACAUUAGGAUCGGUCAUCUGUCUAACCACAUGGAGAAUUAUUUCGGCCAGGGACAGAGGGUUUACCCUGUGCUCAAACUCACUGAUGAAGUUUUCAUAAAGCUUAAUCAACAGAGGAUUGAGCAUCA
B11: chr3:64004597:64004598:-_ENSG00000163636_ENST00000295901|hu_mus|FALSE|FALSE (ssRNA)
RNA: GGGAGUUCUACAGUCCGACGAUCAGUGUAAGUCACAAAUGUCUUGUAAUCCAUGAGCUCAUACGAUGUAAACGUAGAAACAGUGUCGAGAAAGAGCUCUGCUGCCUGUUUGAAGUCACGGAUAGCCACACAAUAUAAGCCCUGCAACAGAGGAUUGAGCAUCA
B12: chr14:102516957:102516958:+_ENSG00000197102_ENST00000360184|hu_mus|FALSE|FALSE (ssRNA)
RNA: GGGAGUUCUACAGUCCGACGAUCCCAUCAACCCUUCCACACCGUUAAGGAUGAAUGAAGGUUAAAUAUUGGGAGUUUCCUAUUCCAGAAAGAGGACUGGAGAAAAGUCUAGCUUUACUCAGUGCACAGAACGGCAACUCCACGCAACAGAGGAUUGAGCAUCA
B13: chr12:85022504:85022505:+_ENSMUSG00000010608_ENSMUST00000048155|mus_hu|FALSE|FALSE (ssRNA)
RNA: GGGAGUUCUACAGUCCGACGAUCCACAAGACCAAUUUUCUUGGCUUCUGUUUCAUAUAUCAAUAAUCUCCACAUUUUGACUAUAAAAACUUCUGCUUCUUCAUCAAGUACCAUGGCAACAUCAUCUAAAAUGCUCUGGGGUGACAACAGAGGAUUGAGCAUCA
B14: chr15:100647222:100647223:+_ENSMUSG00000023032_ENSMUST00000023776|mus_mus|FALSE|FALSE (ssRNA)
RNA: GGGAGUUCUACAGUCCGACGAUCGGGCCAAAAAACUCAUGAUAGUUUUGGAACAUAGAAAAUCACACAUAUACUUUUAAACUAAGUAUCCAAAGUGAUGCCACCGCUUACAGCUCAUUUCUUCGUGUGGCUUUUACACCUGAGCAACAGAGGAUUGAGCAUCA
B15: chr13:56191178:56191179:-_ENSMUSG00000015937_ENSMUST00000016081|mus_hu|FALSE|FALSE (ssRNA)
RNA: GGGAGUUCUACAGUCCGACGAUCUUUAAGGUCAAUGUCAGCAUUGGUAGGAUUGAUUAUGGCCUCCACCUCAAAGCCGGCUAAAUUACUGAUUUCACUGUGAAUAAGGUUCAGCUUCUGGCCAAGGAAGAGGCUCUUGGUGGACAACAGAGGAUUGAGCAUCA
B16: chr16:94690476:94690477:+_ENSMUSG00000040785_ENSMUST00000117648|mus_mus|FALSE|FALSE (ssRNA)
RNA: GGGAGUUCUACAGUCCGACGAUCAGAAAUGUAAUGUAUUCAAGGUUCACAUGUCUGUAUUUGCCACUGCCUACAGGUCACUAAAAAUACCUAGUUUUUGAAUAGUUUCUAAUACAGUUAGCUUGUUUUCAGGCCACAUUACAACAACAGAGGAUUGAGCAUCA
B17: chr10:22824096:22824097:-_ENSG00000150867_ENST00000376573|hu_hu|motif|central (ssRNA)
RNA: GGGAGUUCUACAGUCCGACGAUCGAAAUAAAUGACAGACUGUUUGUUAUAGACAAAAAUAAAAGCAUUCUGUAAACUUCGGAAAGCAUACACAGAUUGGCCCCCAAGGAAACAGUUACUCAAAUAAUGUAUGUGUACCUUAUCCAACAGAGGAUUGAGCAUCA
B18: chr18:67649703:67649704:-_ENSMUSG00000024533_ENSMUST00000115050|mus_mus|FALSE|FALSE (ssRNA)
RNA: GGGAGUUCUACAGUCCGACGAUCUGUUACUGUAUCUUAAUGAUGGUGAAAUGCGACUGGCAUGCCUUUUAUCAAAUGGAGAUGUCAUCAGUGGUGGUAAUGAGGGUGGUUUGUCAGAGCUUUCAGGAGUUACACUGUGCAUGUCAACAGAGGAUUGAGCAUCA
B19: chr2:48026839:48026840:+_ENSG00000116062_ENST00000540021|hu_hu|hu_hu_hu_mus_False|58_88 (ssRNA)
RNA: GGGAGUUCUACAGUCCGACGAUCAUAGUGAGCCACUAGCGUCCUAAAUCUCGAACAGUGGCGGUCAUCCGAAAACUGACCUAUGAAAAACUUGCCCAGUGAAGUGUCCACAAAGCAAACACCAUACACACGAGUGUGACCAGACAACAGAGGAUUGAGCAUCA
B20: chr2:119791414:119791415:+_ENSMUSG00000033943_ENSMUST00000110774|mus_hu|FALSE|FALSE (ssRNA)
RNA: GGGAGUUCUACAGUCCGACGAUCUACUUUACUGAAGGCUUGAAUUUGUUAAUUCUGAUUGAAAAGGUGAGGGAAUGGGAGCUACUUAGGAUAUGAAAAAAGAAAAUUUUACUGAAUGACACAAAGUCCUUCACUUUGGUAUUCCAACAGAGGAUUGAGCAUCA
B21: 151261739_151261965_2669_CDS_ENSG00000143373_ENST00000336715|human|control|control (ssRNA)
RNA: GGGAGUUCUACAGUCCGACGAUCCGGGCACUUAAAGACACUGACACGCUGGGGCAGCAAGUGCUGGUCGAAGUGUGAGGAGAGGAGGGGUUUGUGAGUGAAGACUGUGUCGCACAUGGCGCACUUGUAGAUCAGCUUGGCCUGCAACAGAGGAUUGAGCAUCA
B22: chr7:141441981:141441982:+_ENSG00000106028_ENST00000265304|hu_mus|hu_hu_hu_mus_False|38_58 (ssRNA)
RNA: GGGAGUUCUACAGUCCGACGAUCCUCAUGUCUUACAAACUGACGAAAUACCUGUAACACAGGUCUUCGAAACAUGGCUUCUAUUUUUCUUACAACCAGUCUAAUCUGCUUUUCCUAAAGGAAAGAAAGAAAAGAGAAAAAUGACAACAGAGGAUUGAGCAUCA

Biological target: T1, UNK ZnF1-3 (human, UniProt Q9C0B0 31-174)
T1 sequence: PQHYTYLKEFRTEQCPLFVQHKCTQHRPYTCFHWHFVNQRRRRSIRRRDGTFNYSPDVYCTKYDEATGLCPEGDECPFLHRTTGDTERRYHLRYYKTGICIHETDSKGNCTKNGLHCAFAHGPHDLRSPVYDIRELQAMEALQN
Experiment: nsRBNS (natural sequence RNA bind-n-seq); RBNS binding buffer (assumed for nsRBNS): 25 mM Tris pH 7.5, 150 mM KCl, 3 mM MgCl2, 0.01% Triton X-100, 500 ug/ml BSA, 20 U/ml SUPERase-In, 4 C; UNK is unkempt and MSI1 is Musashi-1; names of the RNAs are library labels; protein concentration not given here; high values mean tight binding

Binder	binding signal
B1	0.953 enrichment R
B2	2.04 enrichment R
B3	0.823 enrichment R
B4	1.87 enrichment R
B5	0.364 enrichment R
B6	0.808 enrichment R
B7	0.721 enrichment R
B8	0.377 enrichment R
B9	0.737 enrichment R
B10	1.87 enrichment R
B11	0.752 enrichment R
B12	0.913 enrichment R
B13	1.19 enrichment R
B14	1.04 enrichment R
B15	0.963 enrichment R
B16	0.802 enrichment R
B17	1.28 enrichment R
B18	0.99 enrichment R
B19	1.1 enrichment R
B20	1.58 enrichment R
B21	1.39 enrichment R
B22	0.685 enrichment R
